Test results from the supplement of paper PMC8728848.
Some of the results follow.

Experiments:
Test in all cases: glycan array binding signal (z-score within array); higher = stronger binding
Conditions in all cases: glycan notation: IUPAC condensed, linker removed
[1] = molecular target: Fuc(a1-2)Gal
Procedure, shortened: (§1)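 Glycan array data were curated from 3228 arrays in the Consortium for Functional Glycomics database and kept only where the protein sequence was available. Glycan names were converted to IUPAC-condensed notation, and columns mapping to the same glycan were averaged. The binding signal is a within-array Z-score, averaged across arrays of the same protein sequence at different concentrations or buffers and across linkers. Negative Z-scores can be read as non-binding.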

[2] = molecular target: Fuc(a1-2)Gal(b1-3)GalNAc
Procedure, shortened: as §1

[3] = molecular target: Fuc(a1-2)Gal(b1-3)GalNAc(b1-3)Gal
Procedure, shortened: as §1

[4] = molecular target: Fuc(a1-2)Gal(b1-3)GalNAc(b1-3)Gal(a1-4)Gal(b1-4)Glc
Procedure, shortened: as §1

[5] = molecular target: Fuc(a1-2)Gal(b1-3)GalNAc(b1-3)Gal(b1-4)Glc
Procedure, shortened: as §1

[6] = molecular target: Fuc(a1-2)Gal(b1-3)GalNAc(b1-4)[Neu5Ac(a2-3)]Gal(b1-4)Glc
Procedure, shortened: as §1

[7] = molecular target: Fuc(a1-2)Gal(b1-3)[Fuc(a1-4)]GlcNAc
Procedure, shortened: as §1

[8] = molecular target: Fuc(a1-2)Gal(b1-4)Glc
Procedure, shortened: as §1

[9] = molecular target: Fuc(a1-2)Gal(b1-4)GlcNAc
Procedure, shortened: as §1

[10] = molecular target: Fuc(a1-2)Gal(b1-4)GlcNAc(b1-3)Gal(b1-4)GlcNAc
Procedure, shortened: as §1

[11] = molecular target: Fuc(a1-2)Gal(b1-4)GlcNAc(b1-3)Gal(b1-4)GlcNAc(b1-3)Gal(b1-4)GlcNAc
Procedure, shortened: as §1

[12] = molecular target: Fuc(a1-2)Gal(b1-4)[Fuc(a1-3)]GalNAc(b1-3)Gal(b1-4)[Fuc(a1-3)]GlcNAc
Procedure, shortened: as §1

[13] = molecular target: Fuc(a1-2)Gal(b1-4)[Fuc(a1-3)]GalNAc(b1-3)Gal(b1-4)[Fuc(a1-3)]GlcNAc(b1-3)Gal(b1-4)[Fuc(a1-3)]GalNAc
Procedure, shortened: as §1

[14] = molecular target: Fuc(a1-2)Gal(b1-4)[Fuc(a1-3)]GlcNAc
Procedure, shortened: as §1

[15] = molecular target: Fuc(a1-2)GlcNAc
Procedure, shortened: as §1

[16] = molecular target: Fuc(a1-2)[Gal(a1-3)]Gal
Procedure, shortened: as §1

[17] = molecular target: Fuc(a1-2)[Gal(a1-3)]Gal(b1-3)GlcNAc
Procedure, shortened: as §1

[18] = molecular target: Fuc(a1-2)[Gal(a1-3)]Gal(b1-4)Glc
Procedure, shortened: as §1

[19] = molecular target: Fuc(a1-2)[Gal(a1-3)]Gal(b1-4)GlcNAc
Procedure, shortened: as §1

[20] = molecular target: Fuc(a1-2)[Gal(a1-3)]Gal(b1-4)[Fuc(a1-3)]GlcNAc
Procedure, shortened: as §1

[21] = molecular target: Fuc(a1-2)[Gal(a1-4)]Gal(b1-4)GalNAc
Procedure, shortened: as §1

[22] = molecular target: Fuc(a1-2)[GalNAc(a1-3)]Gal
Procedure, shortened: as §1

[23] = molecular target: Fuc(a1-2)[GalNAc(a1-3)]Gal(b1-3)GlcNAc
Procedure, shortened: as §1

[24] = molecular target: Fuc(a1-2)[GalNAc(a1-3)]Gal(b1-4)Glc
Procedure, shortened: as §1

[25] = molecular target: Fuc(a1-2)[GalNAc(a1-3)]Gal(b1-4)GlcNAc
Procedure, shortened: as §1

[26] = molecular target: Fuc(a1-2)[GalNAc(a1-3)]Gal(b1-4)[Fuc(a1-3)]GlcNAc
Procedure, shortened: as §1

[27] = molecular target: Fuc(a1-2)[GalNAc(a1-4)]Gal(b1-4)GlcNAc
Procedure, shortened: as §1

[28] = molecular target: Fuc(a1-3)GlcNAc
Procedure, shortened: as §1

[29] = molecular target: Fuc(a1-3)[Gal(b1-4)]GlcNAc
Procedure, shortened: as §1

[30] = molecular target: Fuc(a1-3)[Gal(b1-4)]GlcNAc(b1-4)Gal(b1-4)[Fuc(a1-3)]GlcNAc
Procedure, shortened: as §1

[31] = molecular target: Fuc(a1-3)[Gal(b1-4)]GlcNAc(b1-4)Gal(b1-4)[Fuc(a1-3)]GlcNAc(b1-4)Gal(b1-4)[Fuc(a1-3)]GlcNAc
Procedure, shortened: as §1

[32] = molecular target: Fuc(a1-3)[Gal3S(b1-4)]GlcNAc
Procedure, shortened: as §1

[33] = molecular target: Fuc(a1-3)[GalNAc(b1-4)]Gal(b1-4)GlcNAc
Procedure, shortened: as §1

[34] = molecular target: Fuc(a1-4)GlcNAc
Procedure, shortened: as §1

[35] = molecular target: Fuc(b1-3)GlcNAc
Procedure, shortened: as §1

[36] = molecular target: Gal(a1-2)Gal
Procedure, shortened: as §1

[37] = molecular target: Gal(a1-3)Gal
Procedure, shortened: as §1

[38] = molecular target: Gal(a1-3)Gal(b1-3)Glc
Procedure, shortened: as §1

[39] = molecular target: Gal(a1-3)Gal(b1-3)GlcNAc
Procedure, shortened: as §1

[40] = molecular target: Gal(a1-3)Gal(b1-4)GlcNAc
Procedure, shortened: as §1

[41] = molecular target: Gal(a1-3)Gal(b1-4)[Fuc(a1-3)]GalNAc
Procedure, shortened: as §1

[42] = molecular target: Gal(a1-3)GlcNAc
Procedure, shortened: as §1

[43] = molecular target: Gal(a1-3)[Gal(a1-4)]Gal(b1-4)GlcNAc
Procedure, shortened: as §1

[44] = molecular target: Gal(a1-4)Gal(b1-4)Gal
Procedure, shortened: as §1

[45] = molecular target: Gal(a1-4)Gal(b1-4)GalNAc
Procedure, shortened: as §1

[46] = molecular target: Gal(a1-4)GlcNAc
Procedure, shortened: as §1

[47] = molecular target: Gal(a1-6)Glc
Procedure, shortened: as §1

[48] = molecular target: Gal(b1-2)Gal
Procedure, shortened: as §1

[49] = molecular target: Gal(b1-3)Gal
Procedure, shortened: as §1

[50] = molecular target: Gal(b1-3)GalNAc
Procedure, shortened: as §1

[51] = molecular target: Gal(b1-3)GalNAc(b1-3)Gal(a1-4)Gal(b1-4)Glc
Procedure, shortened: as §1

[52] = molecular target: Gal(b1-3)GalNAc(b1-3)Gal(b1-4)Glc
Procedure, shortened: as §1

[53] = molecular target: Gal(b1-3)GalNAc(b1-3)Gal(b1-4)GlcNAc
Procedure, shortened: as §1

[54] = molecular target: Gal(b1-3)GalNAc(b1-4)Gal(b1-4)Glc
Procedure, shortened: as §1

[55] = molecular target: Gal(b1-3)GalNAc(b1-4)[Neu5Ac(a2-3)]Gal(b1-4)Glc
Procedure, shortened: as §1

[56] = molecular target: Gal(b1-3)[Fuc(a1-4)]GlcNAc
Procedure, shortened: as §1

[57] = molecular target: Gal(b1-3)[Fuc(a1-4)]GlcNAc(b1-3)Gal(b1-4)GlcNAc
Procedure, shortened: as §1

[58] = molecular target: Gal(b1-3)[Fuc(a1-4)]GlcNAc(b1-3)Gal(b1-4)[Fuc(a1-3)]GlcNAc
Procedure, shortened: as §1

[59] = molecular target: Gal(b1-3)[GlcNAc(b1-6)]GalNAc
Procedure, shortened: as §1

[60] = molecular target: Gal(b1-3)[GlcNAc(b1-6)]GlcNAc
Procedure, shortened: as §1

B1: TbCVNHOb (Tuber borchii) (protein)
chain: GSHIGPYMSFYASSEDVRTIEEGGRTWLVGRARRADGSWQDIKLDLDNIIGNRDGHLTWGEQNFTQSASDIRFNFEGGSNVPVLRAKLRNAAGGEQESDLNLGERLTNNNGDLVFN
- glycan array binding signal (z-score) [1]: -0.409
- glycan array binding signal (z-score) [2]: -0.299
- glycan array binding signal (z-score) [3]: -0.484
- glycan array binding signal (z-score) [4]: 2.01
- glycan array binding signal (z-score) [5]: 4.24
- glycan array binding signal (z-score) [6]: -0.152
- glycan array binding signal (z-score) [7]: 0.7
- glycan array binding signal (z-score) [8]: 0.347
- glycan array binding signal (z-score) [9]: -0.529
- glycan array binding signal (z-score) [10]: -0.268
- glycan array binding signal (z-score) [11]: -0.361
- glycan array binding signal (z-score) [12]: -0.589
- glycan array binding signal (z-score) [13]: -0.572
- glycan array binding signal (z-score) [14]: -0.363
- glycan array binding signal (z-score) [15]: -0.561
- glycan array binding signal (z-score) [16]: -0.286
- glycan array binding signal (z-score) [17]: -0.523
- glycan array binding signal (z-score) [18]: -0.49
- glycan array binding signal (z-score) [19]: -0.146
- glycan array binding signal (z-score) [20]: -0.563
- glycan array binding signal (z-score) [21]: 0.5
- glycan array binding signal (z-score) [22]: -0.182
- glycan array binding signal (z-score) [23]: -0.444
- glycan array binding signal (z-score) [24]: 0.333
- glycan array binding signal (z-score) [25]: 0.041
- glycan array binding signal (z-score) [26]: -0.516
- glycan array binding signal (z-score) [27]: -0.465
- glycan array binding signal (z-score) [28]: -0.182
- glycan array binding signal (z-score) [29]: -0.527
- glycan array binding signal (z-score) [30]: -0.485
- glycan array binding signal (z-score) [31]: -0.402
- glycan array binding signal (z-score) [32]: -0.469
- glycan array binding signal (z-score) [33]: 0.474
- glycan array binding signal (z-score) [34]: -0.552
- glycan array binding signal (z-score) [35]: -0.447
- glycan array binding signal (z-score) [36]: -0.375
- glycan array binding signal (z-score) [37]: -0.303
- glycan array binding signal (z-score) [38]: -0.028
- glycan array binding signal (z-score) [39]: -0.53
- glycan array binding signal (z-score) [40]: -0.565
- glycan array binding signal (z-score) [41]: -0.535
- glycan array binding signal (z-score) [42]: -0.551
- glycan array binding signal (z-score) [43]: 1.91
- glycan array binding signal (z-score) [44]: 4.24
- glycan array binding signal (z-score) [45]: 0.275
- glycan array binding signal (z-score) [46]: -0.472
- glycan array binding signal (z-score) [47]: 0.38
- glycan array binding signal (z-score) [48]: -0.193
- glycan array binding signal (z-score) [49]: -0.139
- glycan array binding signal (z-score) [50]: -0.28
- glycan array binding signal (z-score) [51]: 0.331
- glycan array binding signal (z-score) [52]: 4.02
- glycan array binding signal (z-score) [53]: -0.539
- glycan array binding signal (z-score) [54]: -0.387
- glycan array binding signal (z-score) [55]: -0.12
- glycan array binding signal (z-score) [56]: -0.004
- glycan array binding signal (z-score) [57]: -0.231
- glycan array binding signal (z-score) [58]: -0.015
- glycan array binding signal (z-score) [59]: -0.315
- glycan array binding signal (z-score) [60]: -0.554
